Test [1] deals with T1, human CD39 (recombinant protein in solution) (human, UniProt P49961 38-478, limits assumed).
T1 sequence: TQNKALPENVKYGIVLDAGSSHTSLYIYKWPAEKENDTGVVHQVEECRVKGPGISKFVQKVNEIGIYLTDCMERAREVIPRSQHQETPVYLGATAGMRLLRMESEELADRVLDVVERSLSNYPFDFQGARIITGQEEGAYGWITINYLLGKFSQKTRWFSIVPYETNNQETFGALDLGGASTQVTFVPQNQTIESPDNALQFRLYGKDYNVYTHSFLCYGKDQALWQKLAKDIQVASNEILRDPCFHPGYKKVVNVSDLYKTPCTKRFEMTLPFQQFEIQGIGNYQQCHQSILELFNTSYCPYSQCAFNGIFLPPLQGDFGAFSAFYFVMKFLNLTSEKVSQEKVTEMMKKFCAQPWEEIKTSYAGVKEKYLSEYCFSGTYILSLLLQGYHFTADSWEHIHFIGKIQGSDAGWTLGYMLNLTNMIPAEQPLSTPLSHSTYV
As to the kind of experiment: cell-based or functional assay.

The target of test [2] is T2, cynomolgus CD39 on cells (cynomolgus, UniProt P49961 6-510 (human entry)).
T2 construct: also called cyCD39; CHO-cyCD39 cells
T2 chain: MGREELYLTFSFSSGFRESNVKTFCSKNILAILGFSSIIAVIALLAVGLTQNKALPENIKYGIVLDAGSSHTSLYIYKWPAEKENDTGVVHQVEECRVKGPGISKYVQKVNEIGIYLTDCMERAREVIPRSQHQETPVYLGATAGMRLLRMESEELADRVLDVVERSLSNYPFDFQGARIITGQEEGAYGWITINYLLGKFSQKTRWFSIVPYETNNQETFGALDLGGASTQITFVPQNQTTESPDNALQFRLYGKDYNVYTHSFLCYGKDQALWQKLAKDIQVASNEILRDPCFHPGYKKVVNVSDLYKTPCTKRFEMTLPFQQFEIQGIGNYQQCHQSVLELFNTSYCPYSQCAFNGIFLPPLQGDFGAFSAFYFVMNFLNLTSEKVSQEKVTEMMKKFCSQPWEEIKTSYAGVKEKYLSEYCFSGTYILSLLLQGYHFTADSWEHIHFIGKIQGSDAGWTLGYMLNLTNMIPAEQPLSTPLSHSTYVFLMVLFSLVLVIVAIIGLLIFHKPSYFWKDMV
Nature of the test: flow cytometry on CHO-cyCD39 cells, MFI titration. In general terms: Flow cytometry measures light scatter and fluorescence of single cells or particles in a stream.

For test [3], the target named is T1, human CD39 (recombinant protein in …). As to the kind of experiment: BLI (ForteBio), method of Example 3, human CD39 in solution. As to the method: (§1) ForteBio affinity test was conducted according to the existing methods (Estep, P et al., High throughput solution based measurement of antibody-antigen affinity and affinity binding. MAbs, 2013.5 (2): p. 270-8). In short, the sensor is balanced offline in the analysis buffer for 30 min, and then tested online for 60 s to establish baseline. After that, the AHQ sensor is online loaded with the above-obtained purified antibody, and put into 100 nM human CD39 (SEQ ID NO: 28) for 5 min, and then transferred the sensor to PBS for dissociation for 5 min. A 1:1 binding model is used for the dynamic analysis.
The humanized sequences are subjected to the humanized antibody vector construction, expression and purification according to the method described in Example 2. […] The purified humanized antibodies were subjected to the affinity test at protein level according to the method described in Example 3.

Test [4] addresses T3, human CD39 on cells (human, UniProt P49961 1-510).
T3 sequence: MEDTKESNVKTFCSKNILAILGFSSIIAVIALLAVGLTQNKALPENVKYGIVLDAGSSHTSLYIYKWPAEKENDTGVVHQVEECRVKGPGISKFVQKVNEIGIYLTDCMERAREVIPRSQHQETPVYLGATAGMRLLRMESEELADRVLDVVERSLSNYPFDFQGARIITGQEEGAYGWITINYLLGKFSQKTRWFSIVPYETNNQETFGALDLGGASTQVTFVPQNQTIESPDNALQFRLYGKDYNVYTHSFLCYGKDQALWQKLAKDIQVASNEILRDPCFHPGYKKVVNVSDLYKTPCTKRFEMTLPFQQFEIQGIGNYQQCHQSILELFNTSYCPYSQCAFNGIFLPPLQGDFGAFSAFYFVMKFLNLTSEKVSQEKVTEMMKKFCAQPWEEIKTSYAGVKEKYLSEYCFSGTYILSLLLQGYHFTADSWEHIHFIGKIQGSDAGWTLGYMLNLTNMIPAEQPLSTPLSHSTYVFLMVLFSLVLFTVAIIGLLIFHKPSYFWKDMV
As to the kind of experiment: cell-based or functional assay.

The target of test [5] is T3, human CD39 on cells. As to the kind of experiment: flow cytometry on CHO-hCD39 cells, MFI titration.
Test [6] has as its target T3, human CD39 on cells. As to the kind of experiment: cell-based or functional assay. This is another data set of the same source.
For test [7], the target named is T1, human CD39 (recombinant protein in …). As to the kind of experiment: cell-based or functional assay. This is another data set of the same source.
In test [8] the target is T3, human CD39 on cells. Nature of the test: cell-based or functional assay. The source holds these as a separate data set.
Test [9] concerns the target T3, human CD39 on cells. Nature of the test: cell-based or functional assay. The source holds these as a separate data set.
Test [10] has as its target T1, human CD39 (recombinant protein in …). As to the kind of experiment: BLI (ForteBio), method of Example 3, human CD39 in solution. As to the method:
as §1
This is another data set of the same source. (In general: BLI is a label-free optical method that tracks binding on a fibre tip over time.)

Where two headings read alike, the source gives them in different places.

B1: HZ-R-Ye-19(1)-046-3 (Fc fusion)
chain: EVQLLESGGGLVQPGGSLRLSCAASGDIFSINYMSWYRQAPGKERELVAAITGRGNTNYADSVKGRFTISRDNSKNTVYLQMNSLRAEDTAVYYCNAWDYSDYDEGPLREYDYWGQGTQVTVSS[human IgG1 Fc with changes cut from this listing]
As a reminder, the EC50 is the concentration giving half of the maximal effect. Read a low EC50 as higher potency in that assay. The Kd is the constant that tells how readily two partners part at equilibrium. As a reminder, the koff is the first-order rate constant of dissociation. As usually defined, the kon is the rate constant with which the complex forms. On to B1, for which, in test [1], the “EC50 of blocking enzyme activity of soluble human CD39” value was 20.6 nM. In addition, the EC50 in [2] was 2.23 nM. In test [3], the dissociation constant Kd came out at 2.5 nM, the off-rate (koff) was found to be 0.000842 s⁻¹ and the kon stood at 334000 M⁻¹ s⁻¹. In addition, the “EC50 of blocking CD39 enzyme activity of human CD39 overexpression cells” value (“EC50 … of human CD39 overexpression cells” for short) in test [4] came to 0.606 nM. Moreover, in test [5], the EC50 stood at 3.77 nM.

B2: HZ-R-Ye-19(1)-046-1 (Fc fusion)
chain: EVQLLESGGGLVQPGRSLRLSCAASGDIFSINYMGWYRQAPGNERELVAAITGRGNTNYADSVKGRFTISRDNSKNTVYLQMNSLKPEDTAVYYCNAWDYSDYDEGPLREYDYWGQGTQVTVSS[human IgG1 Fc with changes cut from this listing]
On to B2, for which the “EC50 of blocking enzyme activity of soluble human CD39” value in test [1] was determined as 17.2 nM. Besides, a half-maximal response in test [2] (EC50) required 3.27 nM. Also, in test [3], the Kd was determined as 0.43 nM, the koff turned out to be 0.000153 s⁻¹ and the on-rate constant (kon) was 355000 M⁻¹ s⁻¹. In test [4], the “EC50 … of human CD39 overexpression cells” value turned out to be 0.968 nM. The “EC50 of blocking CD39 enzyme activity in PBMC system” value in [6] is 1.57 nM. Further, the half-maximal effective concentration (EC50) in test [5] amounted to 2.73 nM.

B3: HZ-R-Ye-19(1)-046-4 (Fc fusion)
chain: EVQLLESGGGLVQPGGSLRLSCAASGDIFSINYMSWYRQAPGKGLELVAAITGRGNTNYADSVKGRFTISRDNSKNTVYLQMNSLRAEDTAVYYCNAWDYSDYDEGPLREYDYWGQGTQVTVSS[human IgG1 Fc with changes cut from this listing]
For B3, the “EC50 of blocking enzyme activity of soluble human CD39” value in test [1] was determined as 22 nM. The midpoint of the response in [2], the EC50, lay at 2.41 nM. For the same molecule, in test [3], the dissociation constant Kd amounted to 3.4 nM, the koff was 0.000956 s⁻¹ and the kon was determined as 278000 M⁻¹ s⁻¹. For the same molecule, in [4], the “EC50 … of human CD39 overexpression cells” value was determined as 0.982 nM. Besides, the “EC50 of blocking CD39 enzyme activity in PBMC system” value in [6] amounted to 0.897 nM. In [5], this molecule displayed a 50% effective concentration (EC50) of 2.51 nM.

B4: HZ-R-Ye-19(1)-037-2 (Fc fusion)
chain: EVQLLESGGGLVQPGGSLRLSCAVSRGTFSEYSMSWFRQAPGQERDFVTAISGFGHITHYADSVKGRFTISRDNSKNTVYLQMNSLRAEDTAVYYCAAAWQTSPRRMMQMAGSITWGQGTQVTVSS[human IgG1 Fc with changes cut from this listing]
As to B4, the “EC50 of blocking enzyme activity of soluble human CD39” value in [1] was 19.5 nM. Also, in test [2], a half-maximal response (EC50) required 2.53 nM. In addition, in test [3], the Kd was 7.6 nM, the off-rate (koff) was determined as 0.00198 s⁻¹ and the kon is 261000 M⁻¹ s⁻¹. In addition, the “EC50 … of human CD39 overexpression cells” value in [4] was 1.14 nM. The “EC50 of blocking CD39 enzyme activity in PBMC system” value in [6] is 6.76 nM. In addition, the EC50 in test [5] was 4.98 nM.

B5: HZ-R-Ye-19(1)-037-3 + HZ-R-Ye-19(1)-046-2 (other)
chain 1: EVQLLESGGGLVQPGGSLRLSCAVSRGTFSEYSMSWFRQAPGKEREFVTAISGFGHITHYADSVKGRFTISRDNSKNTVYLQMNSLRAEDTAVYYCAAAWQTSPRRMMQMAGSITWGQGTQVTVSS[human IgG1 Fc with changes cut from this listing]
chain 2: EVQLLESGGGLVQPGGSLRLSCAASGDIFSINYMSWYRQAPGNERELVAAITGRGNTNYADSVKGRFTISRDNSKNTVYLQMNSLRAEDTAVYYCNAWDYSDADEGPLREYDYWGQGTQVTVSS[human IgG1 Fc with changes cut from this listing]
Turning to B5, the “EC50 of blocking enzyme activity of soluble human CD39 (1:1 mixture)” value in test [7] came to 5.05 nM. In addition, in test [8], the “EC50 of blocking CD39 enzyme activity in PBMC system (1:1 mixture)” value stood at 0.408 nM.

B6: HZ-R-Ye-19(1)-037-4 (Fc fusion)
chain: EVQLLESGGGLVQPGGSLRLSCAVSRGTFSEYSMSWFRQAPGKGLEFVTAISGFGHITHYADSVKGRFTISRDNSKNTVYLQMNSLRAEDTAVYYCAAAWQTSPRRMMQMAGSITWGQGTQVTVSS[human IgG1 Fc with changes cut from this listing]
As for B6, the “EC50 of blocking enzyme activity of soluble human CD39” value in test [1] is 19.4 nM. In addition, the midpoint of the response in [2], the EC50, lay at 4.82 nM. In test [3], the dissociation constant (Kd) came to 8.6 nM, the koff worked out at 0.00202 s⁻¹ and the kon is 234000 M⁻¹ s⁻¹. In test [4], the “EC50 … of human CD39 overexpression cells” value was found to be 1.51 nM. The “EC50 of blocking CD39 enzyme activity in PBMC system” value in test [6] was 3.97 nM. The molecule also yielded an EC50 in test [5] of 2.2 nM.

B7: HZ-R-Ye-19(1)-037-3 (Fc fusion)
chain: EVQLLESGGGLVQPGGSLRLSCAVSRGTFSEYSMSWFRQAPGKEREFVTAISGFGHITHYADSVKGRFTISRDNSKNTVYLQMNSLRAEDTAVYYCAAAWQTSPRRMMQMAGSITWGQGTQVTVSS[human IgG1 Fc with changes cut from this listing]
Turning to B7, the entries for the “EC50 of blocking enzyme activity of soluble human CD39” value in test [1] and in test [7] were 18.1 nM and 12.6 nM, respectively. The EC50 was found to be 3.38 nM in test [2] and 4.75 nM in test [5]. In addition, the Kd in test [3] was 7.7 nM. For the same molecule, the koff in test [3] stood at 0.00195 s⁻¹. The kon in test [3] was 253000 M⁻¹ s⁻¹. For the same molecule, the “EC50 … of human CD39 overexpression cells” value in test [4] was 0.659 nM; in test [9], 3.15 nM. The “EC50 of blocking CD39 enzyme activity in PBMC system” value worked out at 2.15 nM in test [6] and 0.818 nM in test [8].

B8: 46-37-Fc (bispecific antibody)
chain: EVQLLESGGGLVQPGGSLRLSCAASGDIFSINYMSWYRQAPGNERELVAAITGRGNTNYADSVKGRFTISRDNSKNTVYLQMNSLRAEDTAVYYCNAWDYSDADEGPLREYDYWGQGTQVTVSSGGGGAGGGGAGGGGAGGGGAEVQLLESGGGLVQPGGSLRLSCAVSRGTFSEYSMSWFRQAPGKEREFVTAISGFGHITHYADSVKGRFTISRDNSKNTVYLQMNSLRAEDTAVYYCAAAWQTSPRRMMQMAGSITWGQGTQVTVSS[human IgG1 Fc with changes cut from this listing]
notes: also called bi-epitopic anti-CD39 antibody with N-terminal based structure
Take B8: in test [10], the Kd amounted to 1.6 nM, the off-rate constant (koff) worked out at 0.000211 s⁻¹ and the kon was 130000 M⁻¹ s⁻¹.

The values are drawn from patent US20250230255A1 (BIOTHEUS, published 2025).
